Paper PMC9355564, “A network of cytosolic (co)chaperones promotes the biogenesis of mitochondrial signal-anchored outer membrane proteins” (eLife, 2022)
These are yes or no findings as the source states them, for the method shown. In cells and extracts the contact can be indirect. Some results given as binding are weak or reduced against the parent protein; the word gives no strength. For some assays here: Tags and fused reporters may be left off the sequences shown. Blank lines part the entries; values can stand above or below the molecule they belong to.

Amino acid sequences for entries named in this document (tags omitted). A change or cut given only in a name is not applied to a line headed by its entry. Residues count along the entry.
UniProt P35180: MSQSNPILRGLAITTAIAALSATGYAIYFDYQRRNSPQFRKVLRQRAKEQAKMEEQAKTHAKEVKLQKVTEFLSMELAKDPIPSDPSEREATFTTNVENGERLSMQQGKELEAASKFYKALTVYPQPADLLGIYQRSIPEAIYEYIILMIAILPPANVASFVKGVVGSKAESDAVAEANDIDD
GST-Tom20(35-183): residues 35-183 of P35180
UniProt P25491: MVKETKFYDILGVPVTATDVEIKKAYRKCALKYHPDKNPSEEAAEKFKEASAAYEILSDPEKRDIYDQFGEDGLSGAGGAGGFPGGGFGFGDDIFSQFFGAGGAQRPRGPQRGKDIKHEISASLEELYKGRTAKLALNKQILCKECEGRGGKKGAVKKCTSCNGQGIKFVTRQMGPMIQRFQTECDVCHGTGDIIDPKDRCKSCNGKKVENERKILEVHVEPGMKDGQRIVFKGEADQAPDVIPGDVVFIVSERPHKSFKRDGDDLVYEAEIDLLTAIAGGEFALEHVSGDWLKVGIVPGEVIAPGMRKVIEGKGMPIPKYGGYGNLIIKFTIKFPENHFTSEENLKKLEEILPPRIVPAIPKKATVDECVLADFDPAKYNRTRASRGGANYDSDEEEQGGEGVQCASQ
UniProt Q12329: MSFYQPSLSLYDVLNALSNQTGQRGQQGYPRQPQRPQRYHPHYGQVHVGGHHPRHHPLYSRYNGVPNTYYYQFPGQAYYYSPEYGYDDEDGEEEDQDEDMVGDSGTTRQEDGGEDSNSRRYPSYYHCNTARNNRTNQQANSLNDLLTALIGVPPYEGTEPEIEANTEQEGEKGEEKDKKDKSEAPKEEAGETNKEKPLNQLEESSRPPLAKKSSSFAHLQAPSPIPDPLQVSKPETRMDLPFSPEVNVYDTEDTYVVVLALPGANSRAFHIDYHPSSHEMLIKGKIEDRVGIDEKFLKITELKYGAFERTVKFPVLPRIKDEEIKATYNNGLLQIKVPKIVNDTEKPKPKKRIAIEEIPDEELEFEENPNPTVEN
UniProt P00375: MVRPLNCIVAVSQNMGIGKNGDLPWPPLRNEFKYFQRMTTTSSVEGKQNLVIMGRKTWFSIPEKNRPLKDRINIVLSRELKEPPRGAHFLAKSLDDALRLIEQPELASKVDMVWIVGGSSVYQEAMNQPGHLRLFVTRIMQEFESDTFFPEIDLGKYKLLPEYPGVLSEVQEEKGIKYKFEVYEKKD
UniProt P31539: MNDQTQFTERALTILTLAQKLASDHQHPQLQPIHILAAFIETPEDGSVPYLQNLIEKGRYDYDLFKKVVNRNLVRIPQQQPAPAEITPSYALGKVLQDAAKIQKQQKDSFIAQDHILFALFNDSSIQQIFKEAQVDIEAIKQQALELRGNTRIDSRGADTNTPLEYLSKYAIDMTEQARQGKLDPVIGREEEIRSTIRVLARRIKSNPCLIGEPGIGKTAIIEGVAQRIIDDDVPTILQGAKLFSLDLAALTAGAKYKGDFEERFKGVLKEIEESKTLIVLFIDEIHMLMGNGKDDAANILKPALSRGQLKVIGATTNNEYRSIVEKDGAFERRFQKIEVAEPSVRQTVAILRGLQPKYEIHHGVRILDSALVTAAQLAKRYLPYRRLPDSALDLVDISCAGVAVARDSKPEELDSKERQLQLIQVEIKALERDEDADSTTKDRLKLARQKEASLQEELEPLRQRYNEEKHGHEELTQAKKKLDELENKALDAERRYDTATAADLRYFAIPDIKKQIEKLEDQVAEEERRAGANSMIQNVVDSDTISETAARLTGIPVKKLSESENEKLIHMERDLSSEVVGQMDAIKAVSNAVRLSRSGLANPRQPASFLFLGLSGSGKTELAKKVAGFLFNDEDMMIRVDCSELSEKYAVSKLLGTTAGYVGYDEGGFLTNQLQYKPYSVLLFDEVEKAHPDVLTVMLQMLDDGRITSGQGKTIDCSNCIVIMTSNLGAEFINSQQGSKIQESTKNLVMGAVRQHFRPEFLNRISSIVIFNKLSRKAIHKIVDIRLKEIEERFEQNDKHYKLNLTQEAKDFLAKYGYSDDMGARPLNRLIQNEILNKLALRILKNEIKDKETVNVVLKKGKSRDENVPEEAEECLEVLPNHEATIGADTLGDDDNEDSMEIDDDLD

Columns and labels:
[1] = biological target: GST-Tom20(35-183) (S. cerevisiae) (UniProt P35180); experiment: pull-down; yeast extract incubated with GST alone, GST-Tom20 or GST-Tom70; eluates blotted for endogenous (co)chaperones; only the target purified
[2] = biological target: T1, GST-Tom70(46-617) (S. cerevisiae) (UniProt P07213); experiment: as above
T1 sequence: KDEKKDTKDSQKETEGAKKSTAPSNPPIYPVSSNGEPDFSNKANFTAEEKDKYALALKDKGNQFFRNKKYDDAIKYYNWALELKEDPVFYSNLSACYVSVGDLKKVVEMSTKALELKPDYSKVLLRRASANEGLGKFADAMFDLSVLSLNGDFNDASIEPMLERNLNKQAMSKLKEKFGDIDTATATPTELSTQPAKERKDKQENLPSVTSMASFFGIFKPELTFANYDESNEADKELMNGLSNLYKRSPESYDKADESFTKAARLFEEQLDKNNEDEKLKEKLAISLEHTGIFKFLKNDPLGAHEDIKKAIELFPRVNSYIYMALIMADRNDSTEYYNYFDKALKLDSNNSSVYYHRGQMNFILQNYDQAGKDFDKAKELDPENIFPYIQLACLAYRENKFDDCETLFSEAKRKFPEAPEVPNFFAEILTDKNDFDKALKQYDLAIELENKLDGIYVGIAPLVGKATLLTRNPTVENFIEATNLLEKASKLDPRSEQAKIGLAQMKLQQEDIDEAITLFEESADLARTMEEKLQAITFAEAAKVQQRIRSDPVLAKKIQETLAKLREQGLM

[3] = biological target: T2, Mcr1-3HA (full length) (S. cerevisiae) (UniProt P36060); experiment: pull-down; C-terminally 3HA-tagged proteins translated in vitro in yeast extract (from WT cells, or from cells depleted of Ydj1 and Sis1), pulled down with anti-HA beads; co-purified endogenous proteins in the eluate detected by western blot
T2 sequence: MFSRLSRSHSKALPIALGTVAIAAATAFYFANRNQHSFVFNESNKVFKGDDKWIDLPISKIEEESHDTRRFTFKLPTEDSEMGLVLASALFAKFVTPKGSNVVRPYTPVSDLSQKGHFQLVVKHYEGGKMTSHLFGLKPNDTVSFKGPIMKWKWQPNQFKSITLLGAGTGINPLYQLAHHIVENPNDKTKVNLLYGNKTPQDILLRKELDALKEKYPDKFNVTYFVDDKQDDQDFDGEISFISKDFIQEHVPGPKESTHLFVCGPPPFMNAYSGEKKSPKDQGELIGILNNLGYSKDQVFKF

[4] = biological target: T3, Msp1-3HA (full length) (S. cerevisiae) (UniProt P28737); experiment: as above
T3 sequence: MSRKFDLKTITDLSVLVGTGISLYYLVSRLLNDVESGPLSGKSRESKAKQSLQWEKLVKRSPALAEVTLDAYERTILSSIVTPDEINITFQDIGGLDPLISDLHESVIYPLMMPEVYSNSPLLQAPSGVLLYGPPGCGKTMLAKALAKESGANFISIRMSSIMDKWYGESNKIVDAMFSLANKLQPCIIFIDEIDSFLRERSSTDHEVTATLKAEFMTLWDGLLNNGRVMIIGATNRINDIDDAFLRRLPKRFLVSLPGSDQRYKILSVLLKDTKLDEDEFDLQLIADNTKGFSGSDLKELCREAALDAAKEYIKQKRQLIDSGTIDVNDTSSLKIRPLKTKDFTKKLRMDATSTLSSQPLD

[5] = biological target: Tom20-3HA (full length) (S. cerevisiae) (UniProt P35180); experiment: as above
[6] = biological target: T4, Tom70-3HA (full length) (S. cerevisiae) (UniProt P07213); experiment: as above
T4 sequence: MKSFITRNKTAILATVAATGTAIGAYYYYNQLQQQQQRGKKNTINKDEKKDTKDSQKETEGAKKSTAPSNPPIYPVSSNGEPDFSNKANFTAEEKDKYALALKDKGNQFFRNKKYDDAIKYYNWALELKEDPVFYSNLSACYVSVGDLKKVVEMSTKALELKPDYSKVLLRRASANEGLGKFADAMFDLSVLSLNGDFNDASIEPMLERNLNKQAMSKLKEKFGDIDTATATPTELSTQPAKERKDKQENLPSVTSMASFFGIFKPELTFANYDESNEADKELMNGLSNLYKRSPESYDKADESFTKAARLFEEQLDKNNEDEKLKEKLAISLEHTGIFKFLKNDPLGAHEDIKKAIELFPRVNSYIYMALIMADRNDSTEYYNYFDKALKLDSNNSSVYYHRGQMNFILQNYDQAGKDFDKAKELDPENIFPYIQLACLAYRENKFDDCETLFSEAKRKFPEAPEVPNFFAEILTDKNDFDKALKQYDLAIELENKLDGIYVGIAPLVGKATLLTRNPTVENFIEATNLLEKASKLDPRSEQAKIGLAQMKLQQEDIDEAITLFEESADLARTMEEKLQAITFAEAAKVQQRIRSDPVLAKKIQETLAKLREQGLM

[7] = biological target: GST-Tom20(35-183) (S. cerevisiae) (UniProt P35180); experiment: pull-down; purified GST, GST-Tom20 or GST-Tom70 on glutathione sepharose beads blocked with 5% BSA, mixed with cleared in vitro translation reactions (yeast extract) of HA-tagged proteins; ATP added every 30 min; 20 mM Hepes, 100 mM NaCl, 1 mM MgCl2, pH 7.25; anti-HA blot; only the target purified
[8] = biological target: T1, GST-Tom70(46-617) (S. cerevisiae); experiment: as above

Molecule: Ydj1 (from UniProt P25491 1-409)
binding [1]: binds
binding [2]: binds
binding [3]: binds
binding [4]: binds

Molecule: Hsp42 (from UniProt Q12329 1-375)
binding [3]: binds weakly
binding [4]: binds weakly
binding [5]: binds weakly
binding [6]: binds weakly

Molecule: DHFR-3HA (from UniProt P00375 1-187)
binding [7]: no binding
binding [8]: no binding

B3: Sti1 (protein, UniProt P15705 1-589)
chain: MSLTADEYKQQGNAAFTAKDYDKAIELFTKAIEVSETPNHVLYSNRSACYTSLKKFSDALNDANECVKINPSWSKGYNRLGAAHLGLGDLDEAESNYKKALELDASNKAAKEGLDQVHRTQQARQAQPDLGLTQLFADPNLIENLKKNPKTSEMMKDPQLVAKLIGYKQNPQAIGQDLFTDPRLMTIMATLMGVDLNMDDINQSNSMPKEPETSKSTEQKKDAEPQSDSTTSKENSSKAPQKEESKESEPMEVDEDDSKIEADKEKAEGNKFYKARQFDEAIEHYNKAWELHKDITYLNNRAAAEYEKGEYETAISTLNDAVEQGREMRADYKVISKSFARIGNAYHKLGDLKKTIEYYQKSLTEHRTADILTKLRNAEKELKKAEAEAYVNPEKAEEARLEGKEYFTKSDWPNAVKAYTEMIKRAPEDARGYSNRAAALAKLMSFPEAIADCNKAIEKDPNFVRAYIRKATAQIAVKEYASALETLDAARTKDAEVNNGSSAREIDQLYYKASQQRFQPGTSNETPEETYQRAMKDPEVAAIMQDPVMQSILQQAQQNPAALQEHMKNPEVFKKIQTLIAAGIIRTGR
binding [2]: binds
binding [3]: binds weakly
binding [4]: binds weakly
binding [5]: binds weakly
binding [6]: binds weakly

B4: Hsp26 (protein, UniProt P15992 1-214)
chain: MSFNSPFFDFFDNINNEVDAFNRLLGEGGLRGYAPRRQLANTPAKDSTGKEVARPNNYAGALYDPRDETLDDWFDNDLSLFPSGFGFPRSVAVPVDILDHDNNYELKVVVPGVKSKKDIDIEYHQNKNQILVSGEIPSTLNEESKDKVKVKESSSGKFKRVITLPDYPGVDADNIKADYANGVLTLTVPKLKPQKDGKNHVKKIEVSSQESWGN
binding [1]: no binding
binding [2]: no binding
binding [3]: binds
binding [4]: binds
binding [5]: binds
binding [6]: binds

B6: Djp1 (protein, UniProt P40564 1-432)
chain: MVVDTEYYDLLGVSTTASSIEIKKAYRKKSIQEHPDKNPNDPTATERFQAISEAYQVLGDDDLRAKYDKYGRKEAIPQGGFEDAAEQFSVIFGGDAFASYIGELMLLKNLQKTEELNAEDEAEKEKENVETMEESPADGKTNGTTNAVDAALGNTNEKDDKNKARTTSGNLTVHDGNKKNEQVGAEAKKKKTKLEQFEEEQEVEKQKRVDQLSKTLIERLSILTESVYDDACKDSFKKKFEEEANLLKMESFGLDILHTIGDVYYEKAEIFLASQNLFGMGGIFHSMKAKGGVFMDTLRTVSAAIDAQNTMKELEKMKEASTNNEPLFDKDGNEQIKPTTEELAQQEQLLMGKVLSAAWHGSKYEITSTLRGVCKKVLEDDSVSKKTLIRRAEAMKLLGEVFKKTFRTKVEQEEAQIFEELVAEATKKKRHT
binding [3]: binds
binding [4]: binds
binding [5]: binds
binding [6]: binds

Now from value to molecule:

binding [2]: binds
binding [3]: binds
binding [4]: binds
binding [5]: binds
binding [6]: binds
Molecule: Hsp104 (from UniProt P31539 1-908)

binding [1]: no binding
binding [2]: no binding
B1: Hch1 (protein, UniProt P53834 1-153)
chain: MVVLNPNNWHWVDKNTLPWSKDYLNGKLTSLSTVSSDGKSKIELTQVSSITGDSNVSQRKGKPICYFDLQLSMNVKVTNLDTNKDDEDDDGILADGKLEIPEFMHDESDIPILSQGFDAFDGLVRSEFVPKVVETLLKYQDDLIKEHSKDIQV

binding [1]: binds
binding [3]: binds weakly
binding [4]: binds weakly
binding [5]: binds weakly
binding [6]: binds weakly
B2: Aha1 (protein, UniProt Q12449 1-350)
chain: MVVNNPNNWHWVDKNCIGWAKEYFKQKLVGVEAGSVKDKKYAKIKSVSSIEGDCEVNQRKGKVISLFDLKITVLIEGHVDSKDGSALPFEGSINVPEVAFDSEASSYQFDISIFKETSELSEAKPLIRSELLPKLRQIFQQFGKDLLATHGNDIQVPESQVKSNYTRGNQKSSFTEIKDSASKPKKNALPSSTSTSAPVSSTNKVPQNGSGNSTSIYLEPTFNVPSSELYETFLDKQRILAWTRSAQFFNSGPKLETKEKFELFGGNVISELVSCEKDKKLVFHWKLKDWSAPFNSTIEMTFHESQEFHETKLQVKWTGIPVGEEDRVRANFEEYYVRSIKLTFGFGAVL

binding [3]: binds
binding [4]: binds
binding [5]: binds
binding [6]: binds
B5: Sis1 (endogenous) (protein, UniProt P25294 1-352)
chain: MVKETKLYDLLGVSPSANEQELKKGYRKAALKYHPDKPTGDTEKFKEISEAFEILNDPQKREIYDQYGLEAARSGGPSFGPGGPGGAGGAGGFPGGAGGFSGGHAFSNEDAFNIFSQFFGGSSPFGGADDSGFSFSSYPSGGGAGMGGMPGGMGGMHGGMGGMPGGFRSASSSPTYPEEETVQVNLPVSLEDLFVGKKKSFKIGRKGPHGASEKTQIDIQLKPGWKAGTKITYKNQGDYNPQTGRRKTLQFVIQEKSHPNFKRDGDDLIYTLPLSFKESLLGFSKTIQTIDGRTLPLSRVQPVQPSQTSTYPGQGMPTPKNPSQRGNLIVKYKVDYPISLNDAQKRAIDENF
